Source: the supplement of paper PMC4894684
Values joined by “and” are separate entries in the source; they are usually repeats but may differ in a detail not shown here. Equal values may be shown once. Where a name gives a salt, the structure may show the parent alone. ± gives the standard deviation of the averaged measurements. Hit rate of the full screen: of about 1,000 compounds, about 15 (2%) showed an effect of 50% or more. This is one part of the list.

tested on: HFF; experiment: uninfected host cell viability relative to vehicle control; higher = less host cell toxicity; conditions: 5 µM; 72 h; oxygen 21 %
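Also: confluent HFF monolayers, run in parallel with the Toxoplasma growth screen as a host toxicity counterscreen.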

Structure (SMILES)	uninfected host cell viability
C[S+]([O-])c1ccc(-c2nc(-c3ccc(F)cc3)c(-c3ccncc3)[nH]2)cc1 (stereo not given)	89.4% and 88.6%
CC1=NN(c2ccccc2)C(=O)C1	86.7 ± 0.42%
CN(C)C/C=C(/c1ccc(Br)cc1)c1cccnc1 [Zimelidine dihydrochloride]	86 ± 6.3%
CC(=O)N[C@@H](Cc1c[nH]c2ccccc12)C(=O)OCc1cc(C(F)(F)F)cc(C(F)(F)F)c1	100 ± 2.4%
Cc1ccc2c(c1)c1c3n2CCNC3CCC1 (stereo not given) [Pirlindole mesylate]	88 ± 6.3%
CCN(CC)CCOC(=O)c1cc(Cl)c(N)cc1OC [SDZ 205-557 hydrochloride]	86.6 ± 7.2%
Oc1ccc(/C=C/c2cc(O)cc(O)c2)cc1 [Resveratrol]	91.7 ± 3.2%
CCOC(=O)C1=C(COCCN)NC(C)=C(C(=O)OC)C1c1ccccc1Cl (stereo not given) [Amlodipine besylate]	88.5 ± 1.3%
COc1ccc(/C=C/C(=O)Nc2ccccc2C(=O)O)cc1OC [Tranilast]	85 ± 1%
NC(=O)c1ccc2[nH]ccc2c1	88.1 ± 1%
CCOc1ccc(Nc2nc(-c3c(C)nc4ccccn34)cs2)cc1	73.8 ± 2.5%
Cc1cc(I)ccc1Nc1c(C(=O)NOCC2CC2)cc(F)c(F)c1F	83.5 ± 0.85%
CC[C@]1(O)C[C@H]2CN(CCc3c([nH]c4ccccc34)[C@@](C(=O)OC)(c3cc4c(cc3OC)N(C=O)[C@H]3[C@@](O)(C(=O)OC)[C@H](OC(C)=O)[C@]5(CC)C=CCN6CC[C@]43[C@@H]65)C2)C1 [Vincristine sulfate]	68 ± 2.9%
Cc1cccc(C)c1OCC(C)N (stereo not given) [Mexiletine hydrochloride]	84.1 ± 3.1%
COc1ccccc1N1CCN(CCCCN2C(=O)c3ccccc3C2=O)CC1 [NAN-190 hydrobromide]	86.1 ± 2.8%
CN1[C@@H]2CC[C@H]1C[C@@H](OC(=O)c1c[nH]c3ccccc13)C2 [Tropisetron hydrochloride]	95.77 ± 0.92%
CC(C(=O)O)c1ccc(-c2ccccc2)c(F)c1 (stereo not given) [Flurbiprofen]	88.4 ± 2%
COc1cc(N)c(Cl)cc1C(=O)OCCCN1CCCCC1	89.4 ± 4.1%
COc1ccc(CCN(C)CCCN2CCc3cc(OC)c(OC)cc3CC2=O)cc1OC [Zatebradine hydrochloride]	89.89 ± 0.32%
NC(N)=NC(N)=Nc1cccc(Cl)c1 [m-Chlorophenylbiguanide hydrochloride]	89.3 ± 1.4%
C=CCc1cccc(/C=N/NC(=O)CN2CCN(Cc3ccccc3)CC2)c1O	79.7 ± 1.4%
CN(C)C(=O)C(CCN1CCC(O)(c2ccc(Cl)cc2)CC1)(c1ccccc1)c1ccccc1 [Loperamide hydrochloride]	83.3 ± 3%

Structure (SMILES)	uninfected host cell viability
COc1ccccc1N1CCN(CCN2C(=O)c3ccccc3C(C)(C)C2=O)CC1 [ARC 239 dihydrochloride]	93.6 ± 7.7%
CC[N+](CC)(CC)CCOc1ccc(/C=C/c2ccccc2)cc1	75.6 ± 0.83%
C/C=C1\C(=O)C[C@H]2[C@@H]3CCC4=CC(=O)CC[C@]4(C)[C@H]3CC[C@]12C [Guggulsterone]	121 ± 8.2%
COc1ccc2c(c1OC)C(=O)O[C@@H]2[C@H]1c2c(cc3c(c2OC)OCO3)CCN1C [Noscapine hydrochloride]	89.8 ± 5.4%
Nc1nc2ccc(OC(F)(F)F)cc2s1 [Riluzole hydrochloride]	88.3 ± 3.3%
COc1ccc2c(c1)c(CC(=O)O)c(C)n2C(=O)c1ccc(Cl)cc1 [Indomethacin]	86.8 ± 3.3%
OC(CCCN1CCN(c2ncc(F)cn2)CC1)c1ccc(F)cc1 (stereo not given)	110 ± 17%
COc1cccc(-c2cc(=O)c3ccccc3o2)c1N	87.9 ± 1.2%
COC(=O)/C=C/c1cc(O)ccc1O [Methyl 2,5-dihydroxycinnamate]	84.022 ± 0.057%
OC(CNCC(O)C1CCc2cc(F)ccc2O1)C1CCc2cc(F)ccc2O1 (stereo not given) [Nebivolol hydrochloride]	83.9 ± 2.2%
CC(C)NCC(O)COc1ccccc1-n1cccc1 (stereo not given) [Isamoltane hemifumarate]	86.4 ± 2.9%
CCC(C)N(C)C(=O)c1cc2ccccc2c(-c2ccccc2Cl)n1 (stereo not given)	108 ± 2%
COc1cc2c(cc1C(F)(F)F)N(C(=O)Nc1cc(F)cc(-c3cccnc3)c1)CC2	83.6 ± 2.3%
Nc1nc2ccc(Cl)cc2c2nc(-c3ccco3)nn12	92.8 ± 3.7%
CC(C)NC[C@@H](O)COc1cccc2ccccc12 [(R)-(+)-Propranolol hydrochloride]	85.3 ± 1%
CCC(=O)OCN1C(=O)C=CC1=O	90.82 ± 0.35%
Cn1ccc2cc(NC(=O)Nc3cccnc3)ccc21	84.3 ± 2%
CC[C@H](C)C(=O)O[C@H]1CCC=C2C=C[C@H](C)[C@H](CC[C@@H]3C[C@@H](O)CC(=O)O3)[C@H]21 [Mevastatin]	81.7 ± 4.2%
O=C(/C=C/c1ccc(O)c(O)c1)OCCc1ccccc1 [Caffeic acid phenethyl ester]	94.7 ± 4%
C[N+](C)(C)CC[N+]1(C)Cc2c(Cl)c(Cl)c(Cl)c(Cl)c2C1 [Chlorisondamine diiodide]	83.5 ± 6.6%
CCN(CC)CC1CCN(c2ncc3ncnc(Nc4ccc(F)c(Cl)c4)c3n2)CC1 [BIBU 1361 dihydrochloride]	88.9 ± 3.7%
Cc1ccc([N+](=O)[O-])cc1S(=O)(=O)N(C)C	98 ± 6.1%

Structure (SMILES)	uninfected host cell viability
CC(/C=C/c1cccc(Oc2ccc(F)cc2)c1)N(O)C(N)=O (stereo not given)	82.8 ± 3.7%
COc1ccc(C2CNC(=O)C2)cc1OC1CCCC1 (stereo not given) [Rolipram]	86.1 ± 4.7%
Nc1c(S(=O)(=O)O)cc(Nc2cccc3ccccc23)c2c1C(=O)c1ccccc1C2=O	80.6 ± 2.5%
CCCCN1CCCC1CNC(=O)c1cc(C#N)c2ccccc2c1OC (stereo not given) [Nafadotride]	84.8 ± 2.4%
CN(Cc1ccccc1)C(=O)[C@H](Cc1ccc2ccccc2c1)NC(=O)[C@@H]1CCCN1C(=O)Nc1ccccc1[N+](=O)[O-]	87.6 ± 1.8%
COc1cc([C@@H]2c3cc4c(cc3[C@@H](O[C@@H]3O[C@@H]5CO[C@@H](C)O[C@H]5[C@H](O)[C@H]3O)[C@H]3COC(=O)[C@H]23)OCO4)cc(OC)c1O [Etoposide]	91.8 ± 1.6%
O=[N+]([O-])c1cccc2cn[nH]c12 [7-Nitroindazole]	84.8 ± 1.5%
CCCc1c(OCC(O)COc2ccc3c(=O)cc(C(=O)O)oc3c2CCC)ccc(C(C)=O)c1O (stereo not given)	93.1 ± 1.4%
CC(C)NCC(O)c1ccc2ccccc2c1 (stereo not given) [Pronethalol hydrochloride]	85.9 ± 2.6%
CNc1cc(OC)c(C(=O)NC2CCN(Cc3ccccc3)C2C)cc1Cl (stereo not given) [Nemonapride]	86.9 ± 6.9%
COC(=O)C1=C(C)NC(C)=C(C(=O)OCCSc2ccccc2)C1C (stereo not given)	88.24 ± 0.38%
Cc1cccc(C#Cc2ccccc2)n1 [MPEP hydrochloride]	97.6 ± 2.2%
c1ccc(C(NCc2cccnc2)(c2ccccc2)c2ccccc2)cc1	116.4 ± 0.73%
N[C@H](C(=O)O)c1cc(O)cc(O)c1	91.2 ± 6.2%
Nc1nc(NCCc2ccc(O)cc2)nc2nc(-c3ccco3)nn12	92.5 ± 2.4%
CCn1ccnc1CC1COc2ccccc2O1 (stereo not given) [Imiloxan hydrochloride]	85.7 ± 2.1%
Cc1cc(C)c(/C=C2\C(=O)Nc3ccccc32)[nH]1	77 ± 2%
O=C1CC2(CCCC2)CC(=O)N1CCCCN1CCN(c2ncccn2)CC1 [Buspirone hydrochloride]	90.2 ± 1.8%
CC#CCOC(=O)C1=CCCN(C)C1 [Arecaidine but-2-ynyl ester tosylate]	88 ± 1.3%
O=C(O)C1=CCCNC1 [Guvacine hydrochloride]	89.4 ± 1.3%
CCOCC(O)COc1ccc(NC(=O)CC[S+](C)C)cc1 (stereo not given) [Suplatast tosylate]	97.7 ± 1.6%
COc1cc(/C=C(\C#N)C(N)=O)cc(CSc2nc3ccccc3s2)c1O	81.5 ± 3.5%

Structure (SMILES)	uninfected host cell viability
COc1ccc(C2CC(c3c(O)cc(C)oc3=O)=NCCS2)c(OC)c1 (stereo not given)	80.95 ± 0.11%
c1cc2c(cc1C1CCCCC1)c1c3n2CCNC3CCC1 (stereo not given) [Tetrindole mesylate]	90.7 ± 7.5%
CCN1CCC[C@H]1CNC(=O)c1c(OC)ccc(Br)c1OC [Remoxipride hydrochloride]	87.6 ± 4.9%
CN(C)c1ccc(/C=C2/C(=O)Nc3ccccc32)cc1	80.41 ± 0.13%
N=C(N)S/C=C\C(=O)O [ZAPA sulphate]	99.7 ± 2.3%
c1ccc(CN2CCC3(CCc4ccccc43)CC2)cc1 [L-693,403 maleate]	96.5 ± 4.2%
C[C@@H]1C[C@H]2[C@@H]3CCC4=CC(=O)C=C[C@]4(C)[C@@]3(F)[C@@H](O)C[C@]2(C)[C@@]1(O)C(=O)CO [Dexamethasone]	83.89 ± 0.36%
N=C(N)SCCc1c[nH]cn1 [Imetit dihydrobromide]	88.6 ± 1.5%
O=C(O)CCCc1ccccc1 [sodium 4-Phenylbutyrate]	100 ± 2.5%
CC(C)NCC(O)COc1ccc(CC(N)=O)cc1 (racemic) [(RS)-Atenolol]	91.7 ± 6%
O=C1c2ccccc2C(Cc2ccnc(F)c2)(Cc2ccnc(F)c2)c2ccccc21	90.8 ± 1.9%
COCCOC(=O)C1=C(C)NC(C)=C(C(=O)OC/C=C/c2ccccc2)C1c1cccc([N+](=O)[O-])c1 (stereo not given) [Cilnidipine]	85.8 ± 2.8%
CCCCN1CCC(CCC(=O)c2cc(Cl)c(N)cc2OC)CC1	85.2 ± 6.5%
O=C(O)/C=C/c1ccc(Cn2ccnc2)cc1 [Ozagrel hydrochloride]	89.9 ± 5.5%
Cc1cc(/C(=C/Nc2ccc(Cl)cc2)C(=O)Nc2ccc(Cl)cc2)on1	86.9 ± 4.8%
CC1=Nc2ccc(Cl)cc2S(=O)(=O)N1 [Diazoxide]	88.9 ± 0.94%
COC(=O)C1=C(C)NC(C)=C(C(=O)OCCCN2CCC(c3ccccc3)(c3ccccc3)CC2)[C@H]1c1cccc([N+](=O)[O-])c1 [(S)-(+)-Niguldipine hydrochloride]	76.95 ± 0.17%
O=C(NCCO[N+](=O)[O-])c1cccnc1 [Nicorandil]	85.5 ± 2.7%
C=C1/C(=C\C=C2/CCC[C@]3(C)[C@@H]([C@H](C)/C=C/[C@@H](O)C4CC4)CC[C@@H]23)C[C@@H](O)C[C@@H]1O [Calcipotriol]	83.9 ± 3.1%
